Source: the supplement of paper PMC6531468
The list shows a part of the results. Read counts after selection give these values, which scatter widely. Scores sum up all selected molecules that hold the word; the word was not tested alone.

Legend:
Experiment in all cases: 6-mer SELEX enrichment z-score vs GST control; IMP3 is the RNA-binding protein IGF2BP3; higher = more enriched by binding
[1] = tested on: IMP3 KH1-4; conditions: construct: KH1-4 (164-579); SELEX round: R4
Experimental: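 SELEX-seq with GST-tagged IMP3 KH1-4 (Pro164-Lys579) and an N40 RNA pool, round 4. 6-mer z-score of sequence-tag enrichment normalised to the corresponding GST SELEX round; RNA k-mers written as DNA (T for U).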

[2] = tested on: IMP3 RRM1-2; conditions: construct: RRM1-2 (1-163); SELEX round: R2
Experimental: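 SELEX-seq with GST-tagged IMP3 RRM1-2 (Met1-Asn163) and an N40 RNA pool, round 2. 6-mer enrichment z-score normalised to GST SELEX. RNA written as DNA (T = U).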

[3] = target: IMP3 full-length (UniProt O00425); conditions: construct: FL IMP3 (1-579); SELEX round: R4
Experimental: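 SELEX-seq with GST-tagged full-length IMP3 and an N40 RNA pool, round 4. Each 6-mer is scored as an enrichment z-score of sequence tags containing it, normalised to the matching GST SELEX round. RNA written as DNA (T = U).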

[4] = tested on: IMP3 KH1-2; conditions: construct: KH1-2 (164-376); SELEX round: R4
Experimental: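 SELEX-seq with GST-tagged IMP3 KH1-2 (Pro164-Phe376) and an N40 RNA pool, round 4 (stringent 300/600 mM KCl washes). 6-mer z-score of sequence-tag enrichment normalised to the corresponding GST SELEX round; RNA k-mers written as DNA (T for U).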

[5] = tested on: IMP3 KH3-4; conditions: construct: KH3-4 (377-579); SELEX round: R4
Experimental: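 SELEX-seq with GST-tagged IMP3 KH3-4 (Pro377-Lys579) and an N40 RNA pool, round 4. 6-mer z-score of sequence-tag enrichment normalised to the corresponding GST SELEX round; RNA k-mers written as DNA (T for U).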

Sequence of UniProt O00425 (O00425 whole entry): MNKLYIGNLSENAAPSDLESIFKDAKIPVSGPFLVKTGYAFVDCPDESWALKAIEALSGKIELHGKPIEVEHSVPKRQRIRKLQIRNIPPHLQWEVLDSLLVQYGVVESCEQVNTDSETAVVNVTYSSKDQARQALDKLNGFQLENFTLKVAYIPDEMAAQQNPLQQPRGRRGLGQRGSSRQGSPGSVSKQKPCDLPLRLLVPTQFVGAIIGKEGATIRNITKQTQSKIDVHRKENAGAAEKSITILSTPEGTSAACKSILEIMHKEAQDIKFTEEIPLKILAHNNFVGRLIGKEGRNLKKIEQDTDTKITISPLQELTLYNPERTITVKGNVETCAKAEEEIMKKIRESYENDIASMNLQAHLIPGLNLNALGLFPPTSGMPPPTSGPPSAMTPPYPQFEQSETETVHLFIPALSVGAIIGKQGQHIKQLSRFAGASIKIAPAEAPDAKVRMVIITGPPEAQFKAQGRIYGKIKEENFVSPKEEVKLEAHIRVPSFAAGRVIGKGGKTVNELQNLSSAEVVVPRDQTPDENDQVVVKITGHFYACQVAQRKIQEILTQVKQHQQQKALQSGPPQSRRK
Sequence of IMP3 KH3-4 (chain, as listed by the source): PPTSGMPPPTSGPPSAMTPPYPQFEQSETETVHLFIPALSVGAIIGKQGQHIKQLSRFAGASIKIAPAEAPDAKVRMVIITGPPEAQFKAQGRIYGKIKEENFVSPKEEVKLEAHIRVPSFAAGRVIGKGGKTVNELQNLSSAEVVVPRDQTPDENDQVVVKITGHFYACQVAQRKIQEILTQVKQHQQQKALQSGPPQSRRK
Sequence of IMP3 RRM1-2 (chain, as listed by the source): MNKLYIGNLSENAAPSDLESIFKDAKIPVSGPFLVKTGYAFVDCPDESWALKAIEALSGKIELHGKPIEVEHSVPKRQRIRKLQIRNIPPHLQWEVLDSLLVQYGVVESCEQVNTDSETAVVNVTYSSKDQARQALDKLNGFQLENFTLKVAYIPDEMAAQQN
Sequence of IMP3 KH1-2 (chain, as listed by the source): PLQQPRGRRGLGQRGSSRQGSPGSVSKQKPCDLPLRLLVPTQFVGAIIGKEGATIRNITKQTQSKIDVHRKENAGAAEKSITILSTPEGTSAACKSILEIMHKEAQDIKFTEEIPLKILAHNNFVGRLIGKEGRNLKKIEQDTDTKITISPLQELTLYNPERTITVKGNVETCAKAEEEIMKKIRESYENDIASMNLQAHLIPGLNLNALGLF
Sequence of IMP3 KH1-4 (chain, as listed by the source): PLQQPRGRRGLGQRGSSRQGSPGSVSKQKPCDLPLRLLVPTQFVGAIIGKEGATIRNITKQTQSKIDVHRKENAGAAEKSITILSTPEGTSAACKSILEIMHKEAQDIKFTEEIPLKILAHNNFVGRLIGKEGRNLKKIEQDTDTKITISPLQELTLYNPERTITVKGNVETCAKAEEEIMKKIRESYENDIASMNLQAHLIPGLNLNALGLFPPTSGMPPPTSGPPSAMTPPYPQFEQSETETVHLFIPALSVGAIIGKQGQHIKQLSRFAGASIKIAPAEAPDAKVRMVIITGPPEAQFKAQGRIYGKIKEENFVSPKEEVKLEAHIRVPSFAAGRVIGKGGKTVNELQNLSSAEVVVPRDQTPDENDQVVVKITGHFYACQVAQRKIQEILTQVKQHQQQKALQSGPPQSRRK

| Sequence | 6-mer SELEX enrichment z-score [1] | 6-mer SELEX enrichment z-score [2] | 6-mer SELEX enrichment z-score [3] | 6-mer SELEX enrichment z-score [4] | 6-mer SELEX enrichment z-score [5] |
| --- | --- | --- | --- | --- | --- |
| AATTTT | 1.09 | 0.003 | 0.11 | 1.24 | 2.01 |
| TCTGCA | 0.388 | 0.34 | 0.577 | 0.402 | 0.05 |
| ATATAG | 1.61 | 0.058 | 0.569 | 1.26 | 2.06 |
| ATGACC | -0.101 | -1.1 | -1.03 | -0.285 | -0.606 |
| GAGCGT | -3.85 | -0.205 | -2.04 | -3.61 | -3.47 |
| GGGGCT | 0.526 | 0.278 | 0.58 | 0.787 | 0.848 |
| CCCACG | -1.63 | -0.737 | -1.06 | -1.47 | -2.16 |
| TTTTGC | 0.143 | 0.179 | -0.137 | 0.124 | 0.228 |
| CCAACA | -1.02 | 1.76 | 0.263 | -0.568 | -1.66 |
| CTTACT | 0.487 | 0.118 | -0.114 | 0.487 | 0.367 |
| GGGGTA | 0.055 | 0.193 | 0.218 | 0.322 | 0.384 |
| AATCTG | -0.058 | -0.236 | -0.203 | -0.03 | -0.192 |
| TGGTTA | -0.227 | 0.379 | -0.181 | -0.226 | -0.084 |
| AGATCA | 0.938 | 1.18 | 0.966 | 0.735 | 0.925 |
| CTCCTA | 0.315 | 0.017 | -0.262 | 0.211 | -0.033 |
| CGGAGG | 0.322 | -0.334 | 0.42 | 0.435 | 0.25 |
| TCGGGG | 0.058 | 0.268 | 0.377 | 0.28 | 0.276 |
| CGTTTG | -0.554 | 0.102 | -0.287 | -0.445 | -0.352 |
| TCGTGT | -0.322 | 0.331 | -0.139 | -0.297 | -0.196 |
| GCGACA | -0.333 | 0.023 | 0.791 | -0.382 | -0.514 |
| CCGTCC | -0.272 | -0.308 | 0.122 | -0.165 | -0.923 |
| CACGCC | 0.09 | 0.028 | 0.388 | 0.064 | -0.877 |
| GACTTA | -0.014 | -0.47 | -0.567 | -0.068 | 0.142 |
| TACTCG | -0.855 | 0.152 | -0.382 | -0.732 | -0.712 |
| TCATAG | 0.609 | 1.08 | 0.912 | 0.454 | 0.546 |
| AACCTG | -1.53 | -1.25 | -1.92 | -1.51 | -1.77 |
| ATCTAT | 0.923 | 0.401 | 0.326 | 0.689 | 0.86 |
| ATGCAG | 1.35 | 0.135 | 0.819 | 1.02 | 0.978 |

| Sequence | 6-mer SELEX enrichment z-score [1] | 6-mer SELEX enrichment z-score [2] | 6-mer SELEX enrichment z-score [3] | 6-mer SELEX enrichment z-score [4] | 6-mer SELEX enrichment z-score [5] |
| --- | --- | --- | --- | --- | --- |
| TAAGCA | 0.221 | 0.293 | 0.118 | 0.117 | 0.306 |
| CGAGTA | -1.26 | -0.12 | -0.589 | -1.15 | -0.98 |
| TTTGTT | 0.532 | 0.485 | 0.237 | 0.441 | 0.662 |
| CTCTCT | 0.267 | 0.409 | 0.072 | 0.311 | 0.11 |
| CCCAAC | -2.73 | -0.818 | -2.16 | -2.48 | -3.43 |
| TCCTGA | -0.569 | -0.388 | -0.903 | -0.625 | -0.744 |
| ATGTCA | 0.301 | 0.271 | 0.302 | -0.08 | 0.218 |
| CGTATG | -0.723 | -0.098 | -0.547 | -0.725 | -0.61 |
| GCTATT | 0.32 | 0.371 | 0.093 | 0.346 | 0.498 |
| TGAGGT | 0.12 | 0.145 | 0.202 | 0.148 | 0.349 |
| CTCAGA | -0.666 | 0.33 | -0.045 | -0.583 | -0.664 |
| TTATAT | 1.5 | 0.329 | 0.494 | 1.39 | 2.03 |
| GTAAGA | -0.161 | -0.739 | -0.645 | -0.211 | 0.235 |
| GAGTAT | -0.239 | -0.078 | -0.231 | -0.262 | 0.068 |
| ATGGAC | 0.784 | -0.496 | 0.067 | 0.311 | 0.394 |
| CGGGTA | -0.398 | 0.103 | 0.073 | -0.237 | -0.029 |
| AGCATG | 0.007 | 0.492 | 0.588 | -0.099 | -0.073 |
| TCTAGC | -0.542 | 0.225 | -0.333 | -0.538 | -0.469 |
| GCGGCA | 2.1 | 0.27 | 2.88 | 1.5 | 1.75 |
| GAGACG | -0.955 | -1.02 | -0.635 | -0.891 | -0.898 |
| CCGTCA | -0.289 | 0.243 | 0.705 | -0.272 | -0.632 |
| GCTTAC | 0.132 | 0.1 | 0.118 | 0.241 | 0.138 |
| GATCCG | -0.588 | -0.467 | -0.343 | -0.476 | -0.738 |
| GTGAAT | 0.505 | -0.486 | -0.329 | 0.195 | 0.673 |
| GGACAC | 0.433 | 0.333 | 0.623 | 0.307 | -0.016 |
| TTACGC | 0.482 | 0.125 | 0.036 | 0.38 | 0.392 |
| GGAAAG | 0.382 | -1.16 | -0.454 | 0.222 | 0.599 |
